Some of the results follow.
Test system: PfHDP1 homeodomain (GST-tagged)
Assay: gcPBM binding intensity (ln(normalized median fluorescence intensity)); higher = stronger DNA binding
Method in brief: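 After 1 h on an Agilent 4 × 180k array of primer-extended double-stranded 36-bp intergenic genomic probes and negative controls, bound GST-tagged P. falciparum DNA-binding domains were detected with Alexa488 anti-GST antibody and scanned at 488 nm. The domains had been expressed in E. coli, and binding took place in 1× PBS with 1% milk, 0.2 mg/ml BSA, 0.5% salmon testes DNA and 0.03% Triton X-100. Binding intensity is the highest Masliner-normalised natural-log median intensity across replicate spots of either probe orientation.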

Sequence | gcPBM binding intensity (ln)
TTATCCATTTTAATCACACATACTTTACTTTGGAAC [CACACA_site5584] | 6.48
AATAAATAGATATATACACACATATATGTGTACATA [CACACA_site7476] | 6.94
GGATAAAATGCTACGAGTACATAAGCATTTTTCCCT [XGTACX_site7796] | 6.7
TATAAACATATAAAAAGTACATACCAATTAATATTA [XGTACX_site967] | 6.11
AATATATTCATCATATCAATATTGTCAAGCAAACGA [TGCATGCA_negctrl_site37] | 6.52
TATTCTGTGTATAAAAGTACAAATATTTAAATGTAT [XGTACX_site8234] | 6.82
TCTTTTAAAAATATAAAAAGGAATATATAAAAATGT [CACACA_negctrl_site332] | 6.65
AAAAAAAACAGACACACACACATAAATATATATAAA [CACACA_site148] | 6.82
TAAATAATTTATAAGTGTACTATTATTGCACGAATA [XGTACX_site7715] | 10.4
ATGATTTTTTCTGTATGTACATAAAAATAAAATTCT [XGTACX_site5698] | 6.31
CATTAGGTCTTTTGTACATGCAAGTGTGTGCGTAAA [TGCATGCA_site255] | 8.98
AAAATAAAAATACACATTTTTTTTTTTTTTTTTTTT [TGCATGCA_negctrl_site515] | 7.05
TTTTTTTTTGTTTACACACCCAAATCACATACATAT [CACACA_site4052] | 7.05
TTTTTTTTTTTTTTTGCACACTTGATTTGAGCTTAT [CACACA_site4042] | 9.45
ATAATATCTTTATGTGTGCACATATATATATATATA | 10.5
TATATAAATATATATGTACACACATATACATGTTGA [CACACA_site9022] | 6.46
TTGTTTATTTTTTATTACTATAAAGATGTTATATAT [CACACA_negctrl_site1506] | 6.42
TTCTTTAAAATAAATTGTACTAACATATATATATAT [XGTACX_site6045] | 9.11
AAAATTTAATATAATGCACACATAAAAAAAAAAAAT [CACACA_site8425] | 10.4

Sequence | gcPBM binding intensity (ln)
AACTATATATAACTAGTGCAAAGACAATATTTTAAA | 8.53
TATAATATAATATATGCACACAAATATGTATATATG [CACACA_site8664] | 9.95
TATAAATAGATATATACACACATGAAAATAAATAAA [CACACA_site7228] | 6.7
TTACAAAAATGTGGTTGTACACAAACAAAAAAAATA [XGTACX_site8506] | 6.82
GAAAATAGCTAAAATACACACAATTAAAAGTTATTA [CACACA_site7614] | 6.17
TAATTAAATATTTTCCTACAATTAATAAGAAAAGGA [XGTACX_negctrl_site565] | 6.18
AAGAATAATAACAAATGTACTTATATAAAGTATTAT [XGTACX_site2336] | 6.39
TTTTCCTTTTTGGAATGTACACATATATATTAAATG [XGTACX_site4700] | 6.18
AAATATAATATATGCACACATACATACATATATATA [CACACA_site104] | 10.3
CAGCTCTTAAAAATTACACACATATACGCATATATA [CACACA_site3267] | 6.49
TATTAAGAAGAAAATTCACACATTTGTACCTCTCTT [CACACA_site4822] | 6.29
TCATGTTTTACAAAAACACACAAATGAATATAAACA [CACACA_site4775] | 6.78
TCGAATTTGGAAAGAAGTACATGAAGCCAACATATG [XGTACX_site5222] | 6.68
AATAAATAAAAATTATGTACATATATAAAAAATACA [XGTACX_site8581] | 6.73
TATATACATAGACACCCACACACAAAAAAAAAAAAA [CACACA_site8186] | 6.43
TTTTTTTTTTTTTGGTTCACACTGAAAAGAGAGATA [GTGCAC_negctrl_site439] | 6.29
TTTCAAACTGTTCTCACACACGAAATTAGAAATGAA [CACACA_site4509] | 6.48
AAAACAAAATAGGGAACACACACATGTCAATATATA [CACACA_site8834] | 6.79
CAATCATGGTTTTACACACACATGCATGTGAAAATT [CACACA_site4870] | 6.82

Sequence | gcPBM binding intensity (ln)
TTTGATATAGAAAGAGCATGCAAGTTAGATAAAATA [TGCATGCA_site470] | 7
AATAAATTATTATGTACACACATAATAGTATATATA [CACACA_site1820] | 6.23
TATATATTAATATACACACACACATATATATATATA [CACACA_site1608] | 9.07
AAAACATACCTATATACACACATATAAATATAAATA [CACACA_site6956] | 6.69
ATTTAAGATTTAATCACACACATATATATTATATAC [CACACA_site2907] | 6.55
ATAATATATGTATATCCACACACATATATATATATA [CACACA_site8471] | 9.19
GCAAATGTGAAAACGTGTACACATTTTATTTAATTT [XGTACX_site8000] | 6.35
TATTTGTAAATCGATACACACATATATATTAATATA [CACACA_site196] | 6.63
AAATGTAGATATTATCGTACACATATATTTATATAT [XGTACX_site6326] | 6.54
AACATGTTAAAATAAACACACAGCTAAGGTTTTTTT [CACACA_site157] | 6.31
AAAAAAAAAAAAAAATGTACAAATAGTAGTTACAGA [XGTACX_site2531] | 6.34
ATGTTTTACAAAAACACACAAATGAATATAAACATA [CACACA_site6667] | 6.66
TTTATTATATATAAAAGTACACATTGTAAGGAAACA [XGTACX_site8560] | 6.93
AAATATATATGTATATGTACTTATTTATTTAAAAGG [XGTACX_site4093] | 6.22
TTTTCTGTATAAACTTGTACATATATTTCCTTGTTT [XGTACX_site5745] | 6.54
AAAAGTGATGAGACAAGTACTAACATATTATTATTA [XGTACX_site1533] | 6.3
ATATGTTCTACAAAAAAGATGTCGATTTATTTTCTT [CACACA_negctrl_site1179] | 6.35
AAATAAAATATCAATTAAAACAGAATTGAATTTTTA [CACACA_negctrl_site181] | 6.18
TAAAAAATAAATATATGTACGCAATAAATGTGTTAA [XGTACX_site4043] | 6.13

From the supplement of paper PMC11417369
